Test results: US7235366B1 (priority 1993, dated 2007)
Counter-ions that a name gives are not always drawn.

Target: mouse delta opioid receptor msl-2 (mORD1) (Mus musculus, UniProt P32300)
Experiment: biochemical

| Compound | IC50 |
| --- | --- |
| CCC12CCN(CC3(O)CC3)C(Cc3ccc(O)cc31)C2(C)C (racemic) [Bremazocine] | 19 nM |
| CCN(CC)CCOCCOC(=O)C1(c2ccccc2)CCCC1 [Carbetapentane citrate] | > 1000 nM |
| COc1ccc2c(c1)[C@]13CCCC[C@@H]1[C@H](C2)N(C)CC3 [Dextromethorphan] | > 1000 nM |
| CN1CC[C@@]23CCCC[C@@H]2[C@@H]1Cc1ccc(O)cc13 [Dextrorphan] | > 1000 nM |
| CC[C@]12CCN(CC3CC3)[C@H](C(=O)c3ccc(O)cc31)[C@@H]2C [Ethylketocyclazocine] | 611 nM |
| CN1CC[C@]23CCCC[C@H]2[C@H]1Cc1ccc(O)cc13 [Levorphanol] | 103 nM |
